Our source for the nonsense suppression values is the RNAGym collection of RNA variant scans (doi:10.1101/gad.245936.114).

To fix the notation:
B1: tRNA (parent)
chain: CUCUCGGUAGCCAAGUUGGUUUAAGGCGCAAGACUUUAAUUUAUCACUACGAAAUCUUGAGAUCGGGCGUUCGACUCGCCCCCGGGAGAUUUUUUCCUCGAGCAA

Variants at the background level are over-represented here.

In the data set the parent is B1. Kind of data set: nonsense suppression (GFP-seq) (ratio to wild type); higher = more function; SUP4oc tRNA, yeast GFP reporter sort-seq. In a few lines:
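Nonsense suppression (GFPSEQ) is the median GFP/RFP ratio of each sorting bin, weighted by the variant's estimated share of cells in that bin and expressed relative to the unmutated parent tRNA. Yeast strains carried genome-integrated variants of an ochre-suppressor tRNA from a library with ~3% random mutations, plus a galactose-driven GFP ochre reporter and RFP, and were grown in raffinose/galactose medium containing 80 mg/L adenine. Cells were sorted into GFP/RFP bins, each bin was Illumina-sequenced (phred ≥30), and variants were kept only with ≥100 reads and ≥30 cells.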
With C12A G67U, the nonsense suppression was ≤ 0.026.
Then C12A G67C, with ≤ 0.026.
The same measure for G6C U57C: ≤ 0.026; for A23G U63A: 0.0418; for A23C A33C U55A G61C C83U: ≤ 0.026.
Then G25A, with ≤ 0.026.
Turning to A30U U55G A62U, the nonsense suppression is ≤ 0.026.
Then G6A G7A A30U A54C U58G G59A, with ≤ 0.026; and G7A C11U C27A G32A A54C C81G, with ≤ 0.026; and U2C C56A U71G, with ≤ 0.026.
Turning to A31G C72A, the nonsense suppression is ≤ 0.026.
Then U20G C82A, with ≤ 0.026.
The same measure for U17A C34A U70C: ≤ 0.026; for C11G U20A U22C C34G U70C: ≤ 0.026; for U21G G85A: 1.08.
The same measure for C1A G69A: ≤ 0.026; for C12A U16G A60G C83G G85A: ≤ 0.026; for G59C A60C: ≤ 0.026.
A23U A54U C56U G73C: the nonsense suppression is ≤ 0.026.
The same measure for U57C U58C C81A G86C: ≤ 0.026.
In the case of G25U A30U, the nonsense suppression is ≤ 0.026.
The same measure for C27U A33C U57A: ≤ 0.026; for C5G U8C: ≤ 0.026; for C34U U70A C77G: ≤ 0.026.
Then U20G C77U, with ≤ 0.026; and G6U G10C U70G G73C C80A, with ≤ 0.026.
As for G18U U21C C34G A74C, the nonsense suppression is ≤ 0.026.
Then A23U A60G U63A C81U, with ≤ 0.026.
The same measure for G26C C27U A30U C34U C72G G88C: ≤ 0.026; for A9C C29U: 0.751.
Regarding G7C C29A C79G, the nonsense suppression was ≤ 0.026.
As for G84C G88C, the nonsense suppression is ≤ 0.026.
Regarding G32A U57G G84C, the nonsense suppression is ≤ 0.026.
The same measure for G69U A87U: ≤ 0.026; for G69U A87G: ≤ 0.026; for U17C A62G G78U: ≤ 0.026.
Then U2C C12U U16C G86U, with ≤ 0.026; and C11G C77G, with ≤ 0.026.
The same measure for C56A A62C G73C C80G A87G: ≤ 0.026; for C5U A23G G66A C77G: ≤ 0.026; for U4G C5U G15C C34U G73U: ≤ 0.026.
Turning to G6U G65A A87G, the nonsense suppression was ≤ 0.026.
The same measure for U22C C34A U57G U76G G85C: ≤ 0.026.
The same measure for U4G A31U: 0.0387.
For A13C G19U U58A C77U, the nonsense suppression is ≤ 0.026.
With A33G A74G C81A, the nonsense suppression was ≤ 0.026.
Then A13G G32U, with ≤ 0.026.
With A23G A62U C82G G84U, the nonsense suppression is ≤ 0.026.
With G28U U76A, the nonsense suppression was ≤ 0.026.
The same measure for C5U A60C: 0.0867; for A9G U20G C75G: 0.831; for G10C U57A G86A: ≤ 0.026.
Then G28U A54G, with ≤ 0.026; and A9G G61U, with 1.1; and U20A C79A, with ≤ 0.026.
Then C11A A33G G66C U76C, with ≤ 0.026; and A13G U22A G65C G78A, with ≤ 0.026; and U2G U8C, with ≤ 0.026.
Regarding G6A G19U U55C, the nonsense suppression was ≤ 0.026.
The same measure for U20G U35G: ≤ 0.026; for A14U G26A U57A: ≤ 0.026.
Then U4A C11A A62G C64G G65A U76C, with ≤ 0.026; and C1A G84C, with ≤ 0.026; and U20G C77A C80U, with ≤ 0.026.
Then G32C G88C, with ≤ 0.026; and A33G A60C, with ≤ 0.026; and G6A U8G G19U U57C U70C G86A G88A, with ≤ 0.026.
In the case of A23G G73A, the nonsense suppression was determined as 0.0291.
The same measure for C64G C72G G73U: ≤ 0.026; for G7U U63A A89U: ≤ 0.026.
On to G59U G67C A74U, for which the nonsense suppression is ≤ 0.026.
Then A24G A30C G32A G59A, with ≤ 0.026; and C1G A9C U21G C64U, with ≤ 0.026; and G67U A87C, with ≤ 0.026.
The same measure for C34A U55A G61C: ≤ 0.026.
The same measure for C1A G25C G85C: ≤ 0.026.
Regarding C34A G86A, the nonsense suppression is ≤ 0.026.
Then C1U U76C C77A A87U, with ≤ 0.026; and C68U U70C, with 0.0321; and C68U U70G, with ≤ 0.026.
The same measure for C1U A31U U55G C56A U76A: ≤ 0.026; for G18C U21A A33U G66A: ≤ 0.026.
Turning to G6A U55C, the nonsense suppression worked out at 0.262.
The same measure for U4G A13U C29A: ≤ 0.026; for G6U U20C A30U G59U A89C: ≤ 0.026.
The same measure for G15C U58G U71A: ≤ 0.026; for G19A A24C G85U: ≤ 0.026; for C3U U16G: 0.22.
In the case of C27A A54U U57C, the nonsense suppression was ≤ 0.026.
The same measure for G7U U8C A14U G15U U57A: ≤ 0.026.
Regarding U4G U35A G66A C83U A89C, the nonsense suppression is ≤ 0.026.
The same measure for C5U U57C G84A: ≤ 0.026; for A23U C29A U57G: ≤ 0.026; for A74G G78U: 0.0279.
Then C12U A13G A24U, with ≤ 0.026.
The same measure for U58G G59C G65U: ≤ 0.026; for U57A A74C: ≤ 0.026; for G66C C68U A74C: ≤ 0.026.
As to C27A C34G A60U C77U, the nonsense suppression is ≤ 0.026.
The same measure for U22A G25U C34U: ≤ 0.026; for G61U C64G: ≤ 0.026; for A14U U21G G84U: ≤ 0.026.
The same measure for U2G U4G G6U: ≤ 0.026; for U4A C34U U76A: ≤ 0.026; for U2G G10U C34G: ≤ 0.026.
The same measure for A13G G25A C34G G59U: ≤ 0.026; for C5A G19A U22A G88A: ≤ 0.026; for A9C C68U G78C: 0.0334.
With U2G A13U C29A, the nonsense suppression was ≤ 0.026.
The same measure for U4G G59U: ≤ 0.026; for A9G G73A: 0.12; for G15A G19U: ≤ 0.026.
Then U8G A9U C83A, with ≤ 0.026; and U22G C72G, with ≤ 0.026.
Then U4C U17G G18U A31U, with ≤ 0.026.
In the case of C3G C79G, the nonsense suppression is ≤ 0.026.
The same measure for U20G A62U A87G: ≤ 0.026; for G67A C77U: ≤ 0.026.
The same measure for U4C C77G: ≤ 0.026; for A9C G18U U57C C68A C79A: ≤ 0.026; for G65C A89C: ≤ 0.026.
As to G10C U35C G73U G78C, the nonsense suppression is ≤ 0.026.
Take C5A C11U A23U A60U: the nonsense suppression is ≤ 0.026.
As to A24G C29U, the nonsense suppression is 0.0384.
Then U57A G65A, with ≤ 0.026.
Then C5A A30U G59C C81U, with ≤ 0.026; and U55C G88A, with ≤ 0.026; and G18A A54U, with ≤ 0.026.
Then U63A G69C C80G, with ≤ 0.026; and C3A G6A G65C, with ≤ 0.026.
As to G15U C29A, the nonsense suppression was ≤ 0.026.
Regarding U55C U76A, the nonsense suppression turned out to be 0.15.
The same measure for G15U G28C G61U G84C: ≤ 0.026; for G10A U16G A87G: ≤ 0.026.
As to C56U, the nonsense suppression turned out to be 0.15.
Then C1G G19A G26C, with ≤ 0.026.
The same measure for C3U A9C A31C C34G: ≤ 0.026; for G7U C27G U76A: ≤ 0.026.
For G18C A23G A60U G73A C75A, the nonsense suppression is ≤ 0.026.
The same measure for C72A C75U: ≤ 0.026; for U8A G10U: ≤ 0.026.
Then C5A G25C A54G A89U, with ≤ 0.026.
Turning to G25U U57C, the nonsense suppression is ≤ 0.026.
The same measure for C11G U17C U21C U63C: ≤ 0.026; for U63A C75G: 1.13; for A13C G32A C68G A89U: ≤ 0.026.
The same measure for C11G C12G A60U: ≤ 0.026.
Then A30U C34G, with ≤ 0.026; and U8C G15C U70C C79U A87G, with ≤ 0.026.
For G15C C80A A89U, the nonsense suppression was ≤ 0.026.
On to G28U C34A, for which the nonsense suppression is ≤ 0.026.
On to U2G C11U G18C, for which the nonsense suppression is ≤ 0.026.
Then A24C C29U, with 0.751.
The same measure for G25C C80G: ≤ 0.026.
Then C11U U20A C82G, with ≤ 0.026; and A9C U21C A24U U63A G69U, with ≤ 0.026.
Consider A9C U16G U35A U58C A62C, for which the nonsense suppression was ≤ 0.026.
The same measure for C1A: ≤ 0.026; for U16C C83G G86A A87G: ≤ 0.026; for C56G G67U: ≤ 0.026.
In the case of A9G U35A G61C, the nonsense suppression is ≤ 0.026.
The same measure for G26A G61U G65C G67C: ≤ 0.026; for U2A A30U G69A C77U: ≤ 0.026.
With U57A G69A C80A, the nonsense suppression was ≤ 0.026.
The same measure for U4G U63C C64A: ≤ 0.026; for G15U G66U: ≤ 0.026; for A24C: 1.13.
